{"source": "the supplement of paper PMC11417369", "note": "± gives the standard deviation of the averaged measurements. Some of the results follow.", "data": [{"test_system": "PfAP2-LT AP2 domain (GST-tagged)", "assay": "gcPBM binding intensity (ln(normalized median fluorescence intensity)); higher = stronger DNA binding", "method_in_brief": "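GST-tagged P. falciparum DNA-binding domains produced in E. coli were incubated for 1 h on an Agilent 4 × 180k array of primer-extended double-stranded 36-bp intergenic genomic probes with negative controls. Binding intensity is the highest Masliner-normalised natural-log median intensity across replicate spots of either probe orientation, with bound protein detected by Alexa488 anti-GST antibody at 488 nm.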", "values": [{"sequence": "ATTTGTTACGGACATGCATGCGAATCAGGGTATATA [TGCATGCA_site154]", "gcPBM binding intensity (ln)": "9.06 ± 0.28"}, {"sequence": "TACATATATATATATATATATATATATATCATTATG [XGTACX_negctrl_site293]", "gcPBM binding intensity (ln)": "9.55 ± 0.18"}, {"sequence": "TTGAGGAAATAACAGTGTACAAACAAATTATTACCA [XGTACX_site7082]", "gcPBM binding intensity (ln)": "9 ± 0.55"}, {"sequence": "TTTGTGATATTATATTGTACCCTATATTTATTATAA [XGTACX_site4240]", "gcPBM binding intensity (ln)": "8.8 ± 0.46"}, {"sequence": "GAATGGACGTTAGGGGGTACGTATAAAATTTATCAA [XGTACX_site683]", "gcPBM binding intensity (ln)": "8.93 ± 0.2"}, {"sequence": "TTTATTGACAATTTATGTACATATAATTGAAAAATA [XGTACX_site6634]", "gcPBM binding intensity (ln)": "8.43 ± 0.46"}, {"sequence": "ACATGTAAATGGAAAAGTACTAATAACTTGTATTGG [XGTACX_site5181]", "gcPBM binding intensity (ln)": "8.97 ± 0.52"}, {"sequence": "ATTATTTGTTTAAATTCACACACGTATATATATTTA [CACACA_site3050]", "gcPBM binding intensity (ln)": "9.15 ± 0.37"}, {"sequence": "ATAGAAATATTATATTGTACGAACAGTTATTAACAA [XGTACX_site2137]", "gcPBM binding intensity (ln)": "8.64 ± 0.45"}, {"sequence": "TAATTATTAAAACATTGTACATTATTATAAACAATT [XGTACX_site4489]", "gcPBM binding intensity (ln)": "8.41 ± 0.52"}, {"sequence": "TTATTTTAATATAAAATACACACTACTATTATAAAT [CACACA_site1470]", "gcPBM binding intensity (ln)": "8.52 ± 0.4"}, {"sequence": "ATATATAAATATATTACACACTTTTTCTTTTTTTTT [CACACA_site7332]", "gcPBM binding intensity (ln)": "8.71 ± 0.49"}, {"sequence": "TATTACATACAATATTGTACATATCATATTTTGAAT [XGTACX_site2191]", "gcPBM binding intensity (ln)": "8.92 ± 0.41"}, {"sequence": "ACGGAAAAAGAAAAGGTGCATATGGACACAATATAT", "gcPBM binding intensity (ln)": "9.24 ± 0.58"}, {"sequence": "CTTATATTAATTATTACACACATATTTATAAATGCA [CACACA_site6501]", "gcPBM binding intensity (ln)": "8.93 ± 0.29"}, {"sequence": "TTTTCCATAAGAATTACACACAGAAAGGATAAGTAT [CACACA_site105]", "gcPBM binding intensity (ln)": "9.02 ± 0.49"}, {"sequence": "AAACAGCATGGTATACCTATAAAATATATATACTAA [GTGCAC_negctrl_site39]", "gcPBM binding intensity (ln)": "8.81 ± 0.51"}, {"sequence": "ATATTTACCTTTGTATGTACATATATAAAATATATC [XGTACX_site6367]", "gcPBM binding intensity (ln)": "8.88 ± 0.5"}, {"sequence": "TTTTGTAAAAAGAAAAATTAGAATATATCGTATATA [XGTACX_negctrl_site617]", "gcPBM binding intensity (ln)": "8.11 ± 0.54"}, {"sequence": "GTATATAAATATATATATATATATATATCTATATTT [CACACA_negctrl_site871]", "gcPBM binding intensity (ln)": "9.02 ± 0.42"}, {"sequence": "GTATTTTTACAAATTTGTACATATATATGAATATAC [XGTACX_site6717]", "gcPBM binding intensity (ln)": "9.18 ± 0.4"}, {"sequence": "AAAGAAAAATTAACATGTACAAAAATTACTTGTTCA [XGTACX_site6725]", "gcPBM binding intensity (ln)": "8.58 ± 0.49"}, {"sequence": "TCTGAAACAAGAAAAAGTACACAAATTACAAAACTA [XGTACX_site7641]", "gcPBM binding intensity (ln)": "8.77 ± 0.45"}, {"sequence": "AAAAAAAATTCACACTGTACAAAAGCATAAATAAAC [XGTACX_site5408]", "gcPBM binding intensity (ln)": "9.15 ± 0.39"}, {"sequence": "TAATAAATACAAAAATGTACACACATATATATATTT [XGTACX_site7430]", "gcPBM binding intensity (ln)": "9.02 ± 0.38"}, {"sequence": "TATATATATATTATCACACACTCACGTTTGACAAAA [CACACA_site689]", "gcPBM binding intensity (ln)": "9.07 ± 0.4"}, {"sequence": "TTATTTATTTATTCATGTACGTGTATTTTTTAAAAA [XGTACX_site7915]", "gcPBM binding intensity (ln)": "8.62 ± 0.52"}, {"sequence": "ATTGGGTACAAATACACACACATATATATATTAAGA [CACACA_site5330]", "gcPBM binding intensity (ln)": "9.4 ± 0.4"}, {"sequence": "AGTGTCATATTAACACGTACATAATTATTGTAGAGA [XGTACX_site568]", "gcPBM binding intensity (ln)": "8.93 ± 0.39"}, {"sequence": "ATATTGGAGCACAACACACACAAGTATATATATGGA [CACACA_site1546]", "gcPBM binding intensity (ln)": "9.52 ± 0.3"}, {"sequence": "TATATATATATATATTGTACATATATTATTATATAT [XGTACX_site7447]", "gcPBM binding intensity (ln)": "9.21 ± 0.2"}, {"sequence": "AAATAGCCAAAAATCATGCACACCTAAAAAAAAAAA [CACACA_site2572]", "gcPBM binding intensity (ln)": "8.93 ± 0.45"}, {"sequence": "AATTCTCTTAATAAATAAACACAAATAAATAATAAA [GTGCAC_negctrl_site499]", "gcPBM binding intensity (ln)": "8.42 ± 0.41"}, {"sequence": "CATACATACAAACACACACACACACCGATATATATA [CACACA_site8952]", "gcPBM binding intensity (ln)": "10.29 ± 0.092"}, {"sequence": "CACATACAGACATACACACACATATATATTAATATA [CACACA_site546]", "gcPBM binding intensity (ln)": "9.56 ± 0.41"}, {"sequence": "ATCAACATCTAACATTGTACATGTGATGTGTAAAAG [XGTACX_site547]", "gcPBM binding intensity (ln)": "8.98 ± 0.35"}, {"sequence": "ATATTTGCCCAAGATAGTACATATATATATATATAT [XGTACX_site7756]", "gcPBM binding intensity (ln)": "9.74 ± 0.2"}, {"sequence": "TATATAATAAAAAAAAGTACTTGGACAATATTATTT [XGTACX_site2802]", "gcPBM binding intensity (ln)": "8.62 ± 0.45"}, {"sequence": "TTAATTTACATGAACTGTACATAACATTTTTTTAAA [XGTACX_site4672]", "gcPBM binding intensity (ln)": "8.38 ± 0.45"}, {"sequence": "ATCAAAATATTTATATGTACATATTAAAAATATAGA [XGTACX_site725]", "gcPBM binding intensity (ln)": "8.6 ± 0.38"}, {"sequence": "TCAGTAATACTTGAATGTACTTATATTGTTTGTTTG [XGTACX_site6449]", "gcPBM binding intensity (ln)": "8.87 ± 0.49"}, {"sequence": "CCTATATTAAAACAAGCACACAATCGCATAATATCC [CACACA_site9052]", "gcPBM binding intensity (ln)": "9.15 ± 0.26"}, {"sequence": "AAGGAAATATAATATACACACATAAGTGTACTTATA [CACACA_site4030]", "gcPBM binding intensity (ln)": "8.94 ± 0.4"}, {"sequence": "GAAAAATTAAAAATAACACACACATATATATATTTA [CACACA_site8896]", "gcPBM binding intensity (ln)": "9.21 ± 0.28"}]}]}
